The list shows a part of the results.
Assays:
Experiment in all cases: glycan array binding signal (z-score within array); higher = stronger binding
Settings in all cases: glycan notation: IUPAC condensed, linker removed
[1] = target: GlcNAc(b1-3)Gal(b1-4)GlcNAc(b1-3)Gal(b1-4)GlcNAc(b1-2)Man(a1-3)[GlcNAc(b1-3)Gal(b1-4)GlcNAc(b1-3)Gal(b1-4)GlcNAc(b1-2)Man(a1-6)]Man(b1-4)GlcNAc(b1-4)[Fuc(a1-6)]GlcNAc
How it was run: (§1)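 The binding signal is a Z-score computed within each array and averaged over linkers. Arrays of the same protein sequence at different concentrations or buffers were also averaged together. Data originate from 3228 arrays in the Consortium for Functional Glycomics database, kept only where the protein sequence was available.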

[2] = target: GlcNAc(b1-3)Gal(b1-4)GlcNAc(b1-3)Gal(b1-4)GlcNAc(b1-2)[GlcNAc(b1-3)Gal(b1-4)GlcNAc(b1-3)Gal(b1-4)GlcNAc(b1-6)]Man(a1-6)[GlcNAc(b1-3)Gal(b1-4)GlcNAc(b1-3)Gal(b1-4)GlcNAc(b1-2)Man(a1-3)]Man(b1-4)GlcNAc(b1-4)[Fuc(a1-6)]GlcNAc
How it was run: as §1

[3] = target: GlcNAc(b1-3)Gal(b1-4)GlcNAc(b1-3)Gal(b1-4)GlcNAc(b1-3)Gal(b1-4)GlcNAc(b1-2)Man(a1-3)[GlcNAc(b1-3)Gal(b1-4)GlcNAc(b1-3)Gal(b1-4)GlcNAc(b1-3)Gal(b1-4)GlcNAc(b1-2)Man(a1-6)]Man(b1-4)GlcNAc(b1-4)GlcNAc
How it was run: as §1

[4] = target: GlcNAc(b1-3)Gal(b1-4)GlcNAc(b1-3)Gal(b1-4)GlcNAc(b1-3)Gal(b1-4)GlcNAc(b1-2)Man(a1-3)[GlcNAc(b1-3)Gal(b1-4)GlcNAc(b1-3)Gal(b1-4)GlcNAc(b1-3)Gal(b1-4)GlcNAc(b1-2)Man(a1-6)]Man(b1-4)GlcNAc(b1-4)[Fuc(a1-6)]GlcNAc
How it was run: as §1

[5] = target: GlcNAc(b1-3)Gal(b1-4)GlcNAc(b1-3)Gal(b1-4)GlcNAc(b1-3)Gal(b1-4)GlcNAc(b1-2)[GlcNAc(b1-3)Gal(b1-4)GlcNAc(b1-3)Gal(b1-4)GlcNAc(b1-3)Gal(b1-4)GlcNAc(b1-6)]Man(a1-6)[GlcNAc(b1-3)Gal(b1-4)GlcNAc(b1-3)Gal(b1-4)GlcNAc(b1-3)Gal(b1-4)GlcNAc(b1-2)Man(a1-3)]Man(b1-4)GlcNAc(b1-4)[Fuc(a1-6)]GlcNAc
How it was run: as §1

[6] = target: GlcNAc(b1-3)Gal(b1-4)GlcNAc(b1-3)Gal(b1-4)GlcNAc(b1-3)Gal(b1-4)GlcNAc(b1-3)Gal(b1-4)GlcNAc(b1-2)Man(a1-3)[GlcNAc(b1-3)Gal(b1-4)GlcNAc(b1-3)Gal(b1-4)GlcNAc(b1-3)Gal(b1-4)GlcNAc(b1-3)Gal(b1-4)GlcNAc(b1-2)Man(a1-6)]Man(b1-4)GlcNAc(b1-4)GlcNAc
How it was run: as §1

[7] = target: GlcNAc(b1-3)Gal(b1-4)GlcNAc(b1-3)Gal(b1-4)GlcNAc(b1-3)Gal(b1-4)GlcNAc(b1-3)Gal(b1-4)GlcNAc(b1-2)Man(a1-3)[GlcNAc(b1-3)Gal(b1-4)GlcNAc(b1-3)Gal(b1-4)GlcNAc(b1-3)Gal(b1-4)GlcNAc(b1-3)Gal(b1-4)GlcNAc(b1-2)Man(a1-6)]Man(b1-4)GlcNAc(b1-4)[Fuc(a1-6)]GlcNAc
How it was run: as §1

[8] = target: GlcNAc(b1-3)Gal(b1-4)GlcNAc(b1-3)Gal(b1-4)GlcNAc(b1-3)Gal(b1-4)GlcNAc(b1-3)Gal(b1-4)GlcNAc(b1-2)[GlcNAc(b1-3)Gal(b1-4)GlcNAc(b1-3)Gal(b1-4)GlcNAc(b1-3)Gal(b1-4)GlcNAc(b1-3)Gal(b1-4)GlcNAc(b1-6)]Man(a1-6)[GlcNAc(b1-3)Gal(b1-4)GlcNAc(b1-3)Gal(b1-4)GlcNAc(b1-3)Gal(b1-4)GlcNAc(b1-3)Gal(b1-4)GlcNAc(b1-2)Man(a1-3)]Man(b1-4)GlcNAc(b1-4)[Fuc(a1-6)]GlcNAc
How it was run: as §1

[9] = target: GlcNAc(b1-3)Gal(b1-4)GlcNAc(b1-3)Gal(b1-4)GlcNAc(b1-3)GalNAc
How it was run: as §1

[10] = target: GlcNAc(b1-3)Gal(b1-4)GlcNAc(b1-3)GalNAc
How it was run: as §1

[11] = target: GlcNAc(b1-3)Gal(b1-4)GlcNAc(b1-3)[GlcNAc(b1-3)Gal(b1-4)GlcNAc(b1-3)]GalNAc
How it was run: as §1

[12] = target: GlcNAc(b1-3)Gal(b1-4)GlcNAc(b1-6)[Gal(b1-3)]GalNAc
How it was run: as §1

[13] = target: GlcNAc(b1-3)Gal(b1-4)GlcNAc(b1-6)[GlcNAc(b1-3)Gal(b1-3)]GalNAc
How it was run: as §1

[14] = target: GlcNAc(b1-3)Gal(b1-4)GlcNAc(b1-6)[GlcNAc(b1-3)]Gal(b1-4)GlcNAc
How it was run: as §1

[15] = target: GlcNAc(b1-3)GalNAc
How it was run: as §1

[16] = target: GlcNAc(b1-3)Man
How it was run: as §1

[17] = target: GlcNAc(b1-3)[GlcNAc(b1-4)][GlcNAc(b1-6)]GlcNAc
How it was run: as §1

[18] = target: GlcNAc(b1-3)[GlcNAc(b1-6)]Gal(b1-4)GlcNAc
How it was run: as §1

[19] = target: GlcNAc(b1-3)[GlcNAc(b1-6)]GalNAc
How it was run: as §1

[20] = target: GlcNAc(b1-4)Gal(b1-4)GlcNAc
How it was run: as §1

[21] = target: GlcNAc(b1-4)GlcNAc
How it was run: as §1

[22] = target: GlcNAc(b1-4)GlcNAc(b1-4)GlcNAc
How it was run: as §1

[23] = target: GlcNAc(b1-4)GlcNAc(b1-4)GlcNAc(b1-4)GlcNAc(b1-4)GlcNAc
How it was run: as §1

B1: PX14343B-bfa-546-20-546 (Bacteroides fragilis) (protein)
chain: CDLERYPLTDLSEETFWNSESNAELALTSLYRGSLTDGVEYNPSDWWSYHGMIMMEHLSDNAFDRRGENNPFFKISSGNLTADNAFIKRYWETSYKRIGYCNRFLVGIQNSSESEKKTRMIAEARFLRATQYFYLASYFKNVPLVENVLTGEEANNVTKTSQADILKWCVTEFTAAAADLPRFSAIPAGEAGRACKQAALAFLGRTCMLQKDWKSGAKAFHDIMELGDNAINANYQELFYPSTGTSNKENIFYIQYLENYLGTGLPQHALSAKDGGWSLVNPAADLYESYEFKDGTPFSYDDPRYDPSNLGKDRDPRLDYTIYYNGAIFMGTEYKMSPDYSAAKKEKLDYTSEASRTGFMMRKYFEESTPINDVQSANGLTPVIRYAEVLLGYLECLVEDNQTITQGILDETINAVRGRASVNMPPVTEVTPAKLREIVRHERRIELAMEGIRYWDIMRWGIAHEVLSQKIWGAPYPGSTQYATTTKEVDPTGNYRWYVGKRAFRNPTDYTWPIPQSEQNINPNLRD
[1]
  glycan array binding signal (z-score): -0.115
[2]
  glycan array binding signal (z-score): -0.118
[3]
  glycan array binding signal (z-score): -0.116
[4]
  glycan array binding signal (z-score): -0.109
[5]
  glycan array binding signal (z-score): -0.11
[6]
  glycan array binding signal (z-score): -0.122
[7]
  glycan array binding signal (z-score): -0.127
[8]
  glycan array binding signal (z-score): -0.118
[9]
  glycan array binding signal (z-score): -0.128
[10]
  glycan array binding signal (z-score): -0.132
[11]
  glycan array binding signal (z-score): -0.111
[12]
  glycan array binding signal (z-score): -0.124
[13]
  glycan array binding signal (z-score): -0.112
[14]
  glycan array binding signal (z-score): -0.13
[15]
  glycan array binding signal (z-score): -0.129
[16]
  glycan array binding signal (z-score): -0.128
[17]
  glycan array binding signal (z-score): -0.102
[18]
  glycan array binding signal (z-score): -0.121
[19]
  glycan array binding signal (z-score): -0.118
[20]
  glycan array binding signal (z-score): -0.129
[21]
  glycan array binding signal (z-score): -0.129
[22]
  glycan array binding signal (z-score): -0.124
[23]
  glycan array binding signal (z-score): -0.123

Source: the supplement of paper PMC8728848
